Test results as given in article PMC4336329 (PLoS ONE, 2015).
Among all 310,000 compounds or so, about 2,200 (0.71%) showed an effect of 50% or more. The effect is printed as a negative number. The list shows a part of the results.

Target: human ether-à-go-go-related gene (hERG) potassium channel (human, UniProt Q12809)
Assay: primary screen, population patch clamp on CHO cells stably expressing hERG

Sequence of human ether-à-go-go-related gene (hERG) potassium channel (Q12809 whole entry, looked up): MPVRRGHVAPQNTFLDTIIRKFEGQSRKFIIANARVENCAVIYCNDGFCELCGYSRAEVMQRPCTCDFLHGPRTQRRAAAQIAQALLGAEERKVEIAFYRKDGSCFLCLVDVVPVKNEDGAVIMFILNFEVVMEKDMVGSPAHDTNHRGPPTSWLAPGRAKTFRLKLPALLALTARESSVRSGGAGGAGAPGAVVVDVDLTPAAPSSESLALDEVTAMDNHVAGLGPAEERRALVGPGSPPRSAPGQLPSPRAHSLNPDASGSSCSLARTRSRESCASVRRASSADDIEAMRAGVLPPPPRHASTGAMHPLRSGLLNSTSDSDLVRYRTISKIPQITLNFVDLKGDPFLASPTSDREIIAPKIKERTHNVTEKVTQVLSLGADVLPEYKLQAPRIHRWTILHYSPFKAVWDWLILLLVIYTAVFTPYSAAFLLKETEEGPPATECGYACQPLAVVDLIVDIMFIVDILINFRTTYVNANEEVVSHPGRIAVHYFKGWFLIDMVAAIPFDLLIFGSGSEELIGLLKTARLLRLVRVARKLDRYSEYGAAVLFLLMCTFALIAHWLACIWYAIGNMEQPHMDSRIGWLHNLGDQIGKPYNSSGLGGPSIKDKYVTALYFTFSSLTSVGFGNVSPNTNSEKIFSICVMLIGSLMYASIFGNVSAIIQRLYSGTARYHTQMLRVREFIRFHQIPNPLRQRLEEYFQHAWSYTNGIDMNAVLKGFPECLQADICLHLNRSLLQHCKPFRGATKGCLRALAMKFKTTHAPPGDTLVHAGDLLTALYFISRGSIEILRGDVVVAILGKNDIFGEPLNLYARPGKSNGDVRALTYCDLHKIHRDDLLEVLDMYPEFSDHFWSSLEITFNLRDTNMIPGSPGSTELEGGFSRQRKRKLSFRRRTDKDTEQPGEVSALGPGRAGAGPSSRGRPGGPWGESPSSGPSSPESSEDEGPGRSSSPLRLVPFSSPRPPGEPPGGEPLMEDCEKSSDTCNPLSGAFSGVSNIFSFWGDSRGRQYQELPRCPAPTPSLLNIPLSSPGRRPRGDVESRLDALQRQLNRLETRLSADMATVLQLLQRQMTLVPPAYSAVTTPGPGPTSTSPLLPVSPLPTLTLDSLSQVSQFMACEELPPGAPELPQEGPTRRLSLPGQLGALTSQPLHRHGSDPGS

Compound	hERG current change (%, negative = inhibition) at 1uM [%]
CN1CCN(CCCNC(=O)c2cc3c(=O)oc4ccccc4c3s2)CC1	4.39
CCOc1ccc2noc3c2c1C(=O)c1ccccc1-3	5.69
COCCCN1CC(=O)N2C(c3cccc(OC)c3)c3[nH]c4ccccc4c3C[C@H]2C1=O (stereo partly shown)	14
O=C(CCSCc1ccc(Cl)cc1)NCc1cccnc1	6.09
NC(=S)Nc1nc2ccccc2[nH]c1=O	10.8
O=C(/C(=N\Nc1ccc([N+](=O)[O-])cc1)Sc1nnnn1-c1ccccc1)c1ccccc1	7.63
O=C(Cc1ccccc1)N1CCC(c2nc3ccccc3[nH]2)CC1	-4.82
CCCn1c(SCC(=O)N2CCCC(C)C2)nnc1-c1ccccn1 (stereo not shown)	5.2
O=C(CC(C(=O)N1CCc2ccccc21)n1ccnc1)N1CCc2ccccc2C1 (stereo not shown)	-11.4
COc1cc(NS(=O)(=O)c2cc3[nH]c(=O)c(=O)[nH]c3cc2C)cc(OC)c1OC	1.69
O=C(CN1C(=O)C2CCCCC2C1=O)Nc1nccs1 (stereo not shown)	12.3
Cn1ncc(Br)c1C(=O)N1CCOCC1	2.71
CC(C)Oc1ccc(C(=O)/C=C2/C(=O)Nc3ccccc32)cc1	12.3
O=C(/C=C/c1ccc(-c2ccccc2)o1)c1ccccc1	10.1
N#C/C(=C(/O)c1cccs1)c1nnc2n1CCCCC2	3.57
Cc1ccc(S(=O)(=O)CCC(=O)OCc2ccccc2F)cc1	16.5
CCOc1ccccc1N(CC(=O)Nc1ccc(S(=O)(=O)N2CCOCC2)cc1)S(=O)(=O)c1ccc(Cl)cc1	-0.46
CN(C)c1ccc(C(=O)Nc2cccc(S(=O)(=O)N3CCCC3)c2)cc1	7.09
Cc1ccc(-n2ncc3c(=O)n(CC#N)cnc32)cc1	2.82
Cc1ccc(N2CC(c3nc4ccccc4[nH]3)CC2=O)c(C)c1 (stereo not shown)	9.18
CC(C)c1cc(C(F)(F)F)n2nc(C(=O)O)cc2n1	-1.95
O=C1C2C3C=CC(C3)C2C(=O)N1CCC(=O)N1CCc2ccccc21 (stereo not shown)	-2.62
Cl.NCCNC(=O)c1ncsc1-c1cccc(F)c1	12.7
COc1ccc(NC(=O)C(c2ccc(C)cc2)N(C)C(=O)Cc2cccs2)cc1 (stereo not shown)	7.63
O=C(CCS(=O)(=O)c1ccc(Cl)cc1)Nc1ccc(F)cc1	13.4
